Assay in all cases: Primary Screen for Target Class Profiling of Small Molecule Inhibitors of Methyltransferases
For assay [1], the target named is Glycine N-methyltransferase (Homo sapiens) (UniProt Q14749). The conditions noted are these: purified enzyme, MTase-Glo SAH luminescence; measured here: GNMT inhibition; at 40 µM; stronger effect = lower value. The method, boiled down:
(§1)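 Each enzyme was assayed with SAM and its substrate. SAH formation detected by MTase-Glo luminescence; single-point 40 uM screen[…].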

Assay [2] concerns the target Guanidinoacetate N-methyltransferase (Homo sapiens) (UniProt Q14353). The conditions noted are these: purified enzyme, MTase-Glo SAH luminescence; measured here: GAMT inhibition; at 40 µM; stronger effect = lower value. The method, boiled down:
as §1

The target in assay [3] is Histamine N-methyltransferase (Homo sapiens) (UniProt P50135). The note with it: purified enzyme, MTase-Glo SAH luminescence; measured here: HNMT inhibition; at 40 µM; stronger effect = lower value. The method, boiled down:
as §1

Assay [4] has as its target Nicotinamide N-methyltransferase (Homo sapiens) (UniProt P40261). The note with it: purified enzyme, MTase-Glo SAH luminescence; measured here: NNMT inhibition; at 40 µM; stronger effect = lower value. A digest of the protocol:
as §1

The target of assay [5] is Phenylethanolamine N-methyltransferase (Homo sapiens) (UniProt P11086). The conditions noted are these: purified enzyme, MTase-Glo SAH luminescence; measured here: PNMT inhibition; at 40 µM; stronger effect = lower value. The method, boiled down: as §1

The other results are listed elsewhere or left out. Shown are side measurements of this screen, not its main read-out; they come without a call.
% is set by controls: 0 for no effect and ±100 for the full control effect.

On to `COc1ccc2c(c1)N1C(=O)C[C@@]34C=CC[N@+]5([O-])CC[C@H]2[C@H](CC3)[C@@]145`, for which the activity change, negative = inhibition was 3.55% in assay [1]; 1.68% in assay [2]; 9.06% in assay [3]; -7.17% in assay [4]; 3.05% in assay [5].

Consider `O=C(CCc1nnc2n(Cc3ccc(Cl)cc3)c(=O)c3ccccc3n12)Nc1ccccc1`, for which the activity change, negative = inhibition in assay [1] is -3.12%; in assay [2], 3.64%; in assay [3], 4.21%; in assay [4] it was -7.6%; in assay [5], -2.47%.

For the molecule `Cc1ccc(Cn2c(=O)c3ccccc3n3c(SCC(=O)Nc4ccccc4F)nnc23)cc1`, the activity change, negative = inhibition in assay [1] amounted to 1.06%; in assay [2] it was 2.59%; in assay [3] it was 9.5%; in assay [4], 2.52%; in assay [5] it was 2.84%.

`CC(C)C1c2cccn2CCN1C(=O)Nc1ccccc1C(F)(F)F` (configuration not stated): the activity change, negative = inhibition in assay [1] stood at 16.1%; in assay [2], 0.569%; in assay [3] it was 7.02%; in assay [4], 7.54%; in assay [5], 11.5%.

On to `O=C(O)Cc1ccccc1Oc1ccc(Cl)cc1Cl`, for which the activity change, negative = inhibition in assay [1] is -9.13%; in assay [2], -11.3%; in assay [3] it was 2.74%; in assay [4] it was -17%; in assay [5] it was 1.16%.

Take `CCOc1ccc(CNC(=O)c2ncn3c2C(=O)N(C2CC2)C(C)(C(=O)NCc2cccc(C)c2)C3)cc1` (configuration not stated): the activity change, negative = inhibition in assay [1] is -6.32%; in assay [2] it was 4.54%; in assay [3], -3.14%; in assay [4], -2.3%; in assay [5] it was -0.374%.

As for `CN(C(=O)Cn1nc2n(C)c(=O)c3ccc(C(=O)NC4CCCC4)cc3n2c1=O)c1ccccc1`, the activity change, negative = inhibition amounted to 2.79% in assay [1]; 4.93% in assay [2]; 0.8% in assay [3]; 2.97% in assay [4]; 1.73% in assay [5].

For `COc1ccccc1N1CCN(c2ncnc3n[nH]c(Br)c23)CC1`, the activity change, negative = inhibition in assay [1] is -30%; in assay [2], -23.9%; in assay [3] it was -32.2%; in assay [4] it was -68.9%; in assay [5] it was -26.8%.

Regarding `CNC(=O)[C@@H]1CN(C(=O)CCc2ccc(OC)c(OC)c2)C[C@H]1CO`, the activity change, negative = inhibition was -2.35% in assay [1]; -6.47% in assay [2]; -3.06% in assay [3]; -11.2% in assay [4]; -10.5% in assay [5].

As for `CCc1cc2c(cc3n2CC(C)(C(=O)NC2CCCCCC2)N(Cc2ccccc2Cl)C3=O)s1` (configuration not stated), the activity change, negative = inhibition in assay [1] is 7.58%; in assay [2], 0.523%; in assay [3], 10.5%; in assay [4], 10.6%; in assay [5] it was 3.3%.

As for `CCCn1c(=O)c2ccc(Cl)cc2n2c(=O)n(CC(=O)Nc3cc(F)ccc3F)nc12`, the activity change, negative = inhibition in assay [1] is -0.302%; in assay [2] it was 2.34%; in assay [3] it was 0.941%; in assay [4], 1.75%; in assay [5], -0.39%.

For `CCOc1ccc(CN2C(=O)c3cc4ccccc4n3CC2(C)C(=O)NCc2ccccc2OC)cc1OC` (configuration not stated), the activity change, negative = inhibition in assay [1] was 0.81%; in assay [2], 5.83%; in assay [3] it was 3.62%; in assay [4], -5.82%; in assay [5], -0.425%.

With `COc1cc(-c2cccc(O)c2)cc2c1OCO2`, the activity change, negative = inhibition in assay [1] is 1.75%; in assay [2] it was 9.27%; in assay [3], 11.2%; in assay [4] it was -3.84%; in assay [5] it was 7.71%.

On to `CCCC1c2cccn2CCN1C(=O)Nc1ccc(C)cc1C` (configuration not stated), for which the activity change, negative = inhibition in assay [1] is -0.929%; in assay [2], 2.42%; in assay [3] it was -6.89%; in assay [4], 3.45%; in assay [5], 4.85%.

Take `O=C(c1c2ccccc2cc2ccccc12)N1CCC(N2CCC[C@@H](C(=O)N3CCOCC3)C2)CC1`: the activity change, negative = inhibition in assay [1] is 6.21%; in assay [2], 6.58%; in assay [3] it was 5.45%; in assay [4] it was -12.3%; in assay [5], 3.43%.

As to `CCOc1cc(CN2CCC(C(Cc3ccccc3F)N(C)C(=O)c3cccs3)CC2)ccc1O` (configuration not stated), the activity change, negative = inhibition in assay [1] was -6.14%; in assay [2], -1.81%; in assay [3], -33.4%; in assay [4], -7.58%; in assay [5], -0.178%.

As to `CSc1ccc(CNC(=O)Cn2ccc3cc(S(=O)(=O)N4CCCCC4)ccc32)cc1`, the activity change, negative = inhibition was 1.47% in assay [1]; 0.309% in assay [2]; 3.16% in assay [3]; -2.98% in assay [4]; 0.737% in assay [5].

`Cc1ccc(NC(=O)c2ncn3c2C(=O)N(C2CC2)C(C)(C(=O)NCc2ccc(F)cc2)C3)c(C)c1` (configuration not stated): the activity change, negative = inhibition worked out at 1.2% in assay [1]; 0.795% in assay [2]; 12.5% in assay [3]; 8.24% in assay [4]; 8.39% in assay [5].

As to `CCCn1c(=O)c2ccccc2n2c(=O)n(Cc3ccccc3C)nc12`, the activity change, negative = inhibition is -3.79% in assay [1]; 6.11% in assay [2]; 4.24% in assay [3]; -7.25% in assay [4]; 3.08% in assay [5].

Take `CC1(C(=O)NC2CCCCCCC2)Cn2c(cc3occc32)C(=O)N1CCCc1ccccc1` (configuration not stated): the activity change, negative = inhibition was -10% in assay [1]; -0.081% in assay [2]; -2.73% in assay [3]; -4.78% in assay [4]; -3.79% in assay [5].

`CCc1cc2c(-c3ccccc3)cc(=O)oc2cc1OCc1cc(C(=O)OC)oc1C`: the activity change, negative = inhibition was -3.74% in assay [1]; 0% in assay [2]; 3.55% in assay [3]; -1.27% in assay [4]; -2.69% in assay [5].

For the molecule `CCCN1C(=O)c2c(C(=O)NCCc3ccc(C)cc3)ncn2CC1(C)C(=O)NCc1ccc(OC)cc1` (configuration not stated), the activity change, negative = inhibition in assay [1] was 0.385%; in assay [2], 0%; in assay [3], -2.77%; in assay [4], 1.81%; in assay [5], 1.32%.

Take `O=C(NC1CCCC1)N1CCC(Cc2nncn2CC2CC2)CC1`: the activity change, negative = inhibition in assay [1] is -7.48%; in assay [2] it was -12.2%; in assay [3], -6.43%; in assay [4], -16.1%; in assay [5], -14.5%.

Take `O=C(C1CCOCC1)N1CCC(c2nc(C3CCOCC3)no2)CC1`: the activity change, negative = inhibition in assay [1] is -3.38%; in assay [2] it was 0.988%; in assay [3], 3.37%; in assay [4] it was 3.75%; in assay [5], 5.41%.

Take `CC1(C)S[C@@H]2[C@H](NC(=O)[C@H](N)c3ccc(O)cc3)C(=O)N2[C@H]1C(=O)O`: the activity change, negative = inhibition in assay [1] was 3.4%; in assay [3], 5.2%.

Regarding `C=CCC1=C[C@]2(OC)[C@H](C)[C@@H](c3ccc(O)c(OC)c3)O[C@]2(OC)CC1=O`, the activity change, negative = inhibition in assay [1] is 0.298%; in assay [2], 6.74%; in assay [3] it was 5.32%; in assay [4], -5.54%; in assay [5], 7.57%.

Consider `C#CCNC(=O)C1CCc2nnc(CNC(=O)c3ccc(Cl)cc3Cl)n21` (configuration not stated), for which the activity change, negative = inhibition was -3.91% in assay [1]; -4.75% in assay [2]; -2.19% in assay [3]; -3.7% in assay [4]; -0.377% in assay [5].

On to `c1ccc(-c2nc(CC3CCCNC3)no2)nc1` (configuration not stated), for which the activity change, negative = inhibition was -4.11% in assay [1]; -9.26% in assay [2]; -6.11% in assay [3]; -4.87% in assay [4]; -4.33% in assay [5].

On to `CCCOc1ccc(CN2C(=O)c3cc4oc(C)cc4n3CC2(C)C(=O)NC2CCCCCC2)cc1` (configuration not stated), for which the activity change, negative = inhibition in assay [1] is 4.35%; in assay [2] it was 1.74%; in assay [3], 8.79%; in assay [4], 5.69%; in assay [5], 1.9%.

As to `O=C(Cn1ccc2cc(S(=O)(=O)N3CCCCC3)ccc21)NC1CCN(Cc2ccccc2)CC1`, the activity change, negative = inhibition was 6.22% in assay [1]; 1.71% in assay [2]; -23% in assay [3]; 7.05% in assay [4]; 4.37% in assay [5].

On to `Cn1cnc2c(NCc3ccccc3)nc(NCCO)nc21`, for which the activity change, negative = inhibition in assay [1] is 4.31%; in assay [2], 9.61%; in assay [3] it was 11%; in assay [4], -9.11%; in assay [5], -0.745%.

These data come from PubChem BioAssay AID1745853 (National Center for Advancing Translational Sciences (NCATS), 2022).
